Data reported in PMC12090624.
Results are given in words; binding and its absence hold for the method and conditions named. Binding seen in cells or lysates may run through a third protein. Some binding calls cover weakened binding; strength is not graded here.

By UniProt entry, the sequences of proteins in these tests, tags left out.
UniProt P15311: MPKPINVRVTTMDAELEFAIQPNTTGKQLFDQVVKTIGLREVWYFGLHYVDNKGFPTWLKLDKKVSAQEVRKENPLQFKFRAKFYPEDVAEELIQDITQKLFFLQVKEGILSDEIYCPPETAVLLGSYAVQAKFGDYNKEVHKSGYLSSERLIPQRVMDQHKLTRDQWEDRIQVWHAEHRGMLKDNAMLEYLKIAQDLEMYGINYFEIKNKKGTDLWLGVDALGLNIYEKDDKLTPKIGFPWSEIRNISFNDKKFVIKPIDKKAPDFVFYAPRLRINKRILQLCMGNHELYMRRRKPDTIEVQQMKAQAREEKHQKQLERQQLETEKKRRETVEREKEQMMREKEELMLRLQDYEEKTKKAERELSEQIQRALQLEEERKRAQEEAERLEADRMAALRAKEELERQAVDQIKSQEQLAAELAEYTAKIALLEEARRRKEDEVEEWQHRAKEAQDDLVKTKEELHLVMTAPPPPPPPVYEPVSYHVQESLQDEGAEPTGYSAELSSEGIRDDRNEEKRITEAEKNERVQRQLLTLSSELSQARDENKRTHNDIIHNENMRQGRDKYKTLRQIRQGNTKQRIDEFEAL
UniProt Q96RT1: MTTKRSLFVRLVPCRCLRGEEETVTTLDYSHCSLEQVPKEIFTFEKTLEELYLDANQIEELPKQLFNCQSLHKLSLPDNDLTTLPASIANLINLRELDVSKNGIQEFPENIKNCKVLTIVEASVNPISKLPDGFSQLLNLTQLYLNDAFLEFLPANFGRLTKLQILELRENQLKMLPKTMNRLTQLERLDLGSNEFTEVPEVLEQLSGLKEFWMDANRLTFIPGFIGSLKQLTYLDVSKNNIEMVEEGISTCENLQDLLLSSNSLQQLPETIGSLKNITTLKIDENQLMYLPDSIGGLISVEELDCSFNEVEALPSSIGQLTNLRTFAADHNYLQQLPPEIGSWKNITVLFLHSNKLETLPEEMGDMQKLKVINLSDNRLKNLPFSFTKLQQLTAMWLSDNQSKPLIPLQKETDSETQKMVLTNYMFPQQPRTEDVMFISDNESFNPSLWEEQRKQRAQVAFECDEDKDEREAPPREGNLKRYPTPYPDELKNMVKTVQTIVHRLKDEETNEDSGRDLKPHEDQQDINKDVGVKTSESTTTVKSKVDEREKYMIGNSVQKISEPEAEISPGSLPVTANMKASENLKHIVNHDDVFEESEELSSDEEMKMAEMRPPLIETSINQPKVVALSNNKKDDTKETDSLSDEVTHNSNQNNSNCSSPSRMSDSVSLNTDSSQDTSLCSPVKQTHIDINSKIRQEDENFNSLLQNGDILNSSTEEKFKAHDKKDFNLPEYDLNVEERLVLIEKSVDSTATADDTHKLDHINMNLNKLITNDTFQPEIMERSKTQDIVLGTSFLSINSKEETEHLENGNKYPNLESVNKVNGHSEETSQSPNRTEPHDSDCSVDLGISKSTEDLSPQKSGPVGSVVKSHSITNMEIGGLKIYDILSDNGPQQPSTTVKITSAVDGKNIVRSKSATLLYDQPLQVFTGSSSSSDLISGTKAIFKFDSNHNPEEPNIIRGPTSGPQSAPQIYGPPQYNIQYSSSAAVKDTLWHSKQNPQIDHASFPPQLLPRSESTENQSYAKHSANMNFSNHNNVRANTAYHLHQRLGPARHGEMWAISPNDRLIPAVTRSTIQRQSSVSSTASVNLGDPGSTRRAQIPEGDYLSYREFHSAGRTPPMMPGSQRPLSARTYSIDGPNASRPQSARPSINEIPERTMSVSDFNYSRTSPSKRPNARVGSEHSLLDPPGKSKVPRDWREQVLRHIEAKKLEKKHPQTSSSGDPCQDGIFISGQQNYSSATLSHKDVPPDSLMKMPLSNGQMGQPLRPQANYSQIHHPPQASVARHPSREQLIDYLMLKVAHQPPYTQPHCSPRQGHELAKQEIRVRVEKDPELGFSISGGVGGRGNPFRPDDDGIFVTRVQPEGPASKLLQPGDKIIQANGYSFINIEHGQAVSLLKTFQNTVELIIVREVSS

Assays:
[1] = target: Erb-b2 receptor tyrosine kinase 2 (HER2) (human (endogenous in SKBR3)) (UniProt P04626); experiment: proximity ligation; Duolink PLA on fixed, permeabilised SKBR3 cells, endogenous proteins; control cells, Erbin knock-down, NHERF1 knock-down, NSC668394 (10 uM, 16 h), serum free or 100 ng/ml EGF
[2] = target: Ezrin (human (endogenous in SKBR3 and MCF10A)) (UniProt P15311); experiment: as above
[3] = target: Erb-b2 receptor tyrosine kinase 2 (HER2) (human (endogenous in SKBR3)) (UniProt P04626); experiment: co-IP; extracts of SKBR3 cells (control and Erbin knock-down) in RIPA buffer, incubated overnight at 4 C with protein A/G beads and antibody to the endogenous bait (anti-HER2 or anti-HSP90) or control IgG; Western blot
[4] = target: Ezrin (human (endogenous in SKBR3 and MCF10A)) (UniProt P15311); experiment: condition: only in MCF10A cells, which do not express HER2; proximity ligation; Duolink PLA on fixed, permeabilised MCF10A cells (non-transformed, do not express HER2), endogenous proteins

binding [1] | binding [2] | binding [3] | binding [4] | Substance
binds | binds | binds | no binding | Erbin (ErbB2 Interacting Protein) (from UniProt Q96RT1 1-1412)
binds | – | binds | – | Ezrin (from UniProt P15311 1-586)
